No constants are given. Whether binding was seen depends on the method and setting. For some assays here: Binding seen in cells or lysates may run through a third protein. Some entries that bind do so weakly or less than the wild type. Where a sequence is shown, tags or fusion partners need not be part of it.
T1: PIF4-TAP (PHYTOCHROME-… FACTOR 4 with 9xMyc-6xHis-3xFlag) expressed from 35S::PIF4-TAP in Arabidopsis (Arabidopsis thaliana) (UniProt Q8W2F3)
T1 sequence: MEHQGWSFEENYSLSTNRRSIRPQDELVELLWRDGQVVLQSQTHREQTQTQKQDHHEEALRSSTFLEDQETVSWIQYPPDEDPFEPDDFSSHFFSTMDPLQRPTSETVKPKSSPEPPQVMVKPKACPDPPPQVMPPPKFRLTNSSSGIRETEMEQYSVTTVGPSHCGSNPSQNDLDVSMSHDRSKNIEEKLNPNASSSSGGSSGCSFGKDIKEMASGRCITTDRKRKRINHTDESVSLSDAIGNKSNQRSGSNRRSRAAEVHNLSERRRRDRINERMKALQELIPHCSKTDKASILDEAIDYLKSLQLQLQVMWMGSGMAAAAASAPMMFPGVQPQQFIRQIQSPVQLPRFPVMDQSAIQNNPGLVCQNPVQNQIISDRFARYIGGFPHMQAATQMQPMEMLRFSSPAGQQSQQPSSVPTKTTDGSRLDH

T2: 2HA-CDF2-N (CDF2 residues 1-201), synthesized in a cell-free system (Arabidopsis thaliana) (UniProt Q93ZL5)
T2 sequence: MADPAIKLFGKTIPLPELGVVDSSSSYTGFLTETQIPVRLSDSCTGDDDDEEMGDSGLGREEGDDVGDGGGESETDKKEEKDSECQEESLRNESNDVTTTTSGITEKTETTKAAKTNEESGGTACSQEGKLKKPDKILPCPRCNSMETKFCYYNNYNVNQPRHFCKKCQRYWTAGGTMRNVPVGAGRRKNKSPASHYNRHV

T3: 2HA-CDF2 full length, synthesized in a cell-free system (Arabidopsis thaliana) (UniProt Q93ZL5)
T3 sequence: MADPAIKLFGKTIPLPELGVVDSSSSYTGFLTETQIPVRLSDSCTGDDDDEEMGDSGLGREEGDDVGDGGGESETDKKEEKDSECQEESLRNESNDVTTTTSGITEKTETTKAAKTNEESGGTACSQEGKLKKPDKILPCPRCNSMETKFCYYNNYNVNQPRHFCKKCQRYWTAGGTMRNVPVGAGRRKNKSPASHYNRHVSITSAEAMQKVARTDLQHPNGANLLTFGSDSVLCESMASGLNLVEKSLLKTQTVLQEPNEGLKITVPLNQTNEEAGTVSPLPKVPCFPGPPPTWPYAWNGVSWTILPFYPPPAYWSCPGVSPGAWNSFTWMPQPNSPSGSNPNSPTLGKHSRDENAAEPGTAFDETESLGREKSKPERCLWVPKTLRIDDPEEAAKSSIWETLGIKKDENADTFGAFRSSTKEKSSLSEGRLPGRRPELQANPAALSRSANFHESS

T4: 2HA-CDF2-C (CDF2 residues 202-457), synthesized in a cell-free system (Arabidopsis thaliana) (UniProt Q93ZL5)
T4 sequence: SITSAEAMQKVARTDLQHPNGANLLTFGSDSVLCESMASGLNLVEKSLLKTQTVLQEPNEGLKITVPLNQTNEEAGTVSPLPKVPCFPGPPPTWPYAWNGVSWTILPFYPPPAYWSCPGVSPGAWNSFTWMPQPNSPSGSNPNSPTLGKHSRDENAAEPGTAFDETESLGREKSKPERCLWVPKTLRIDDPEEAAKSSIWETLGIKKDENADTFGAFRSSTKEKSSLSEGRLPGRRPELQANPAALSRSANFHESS

T5: MBP-PIF4^bHLH (bHLH DNA-binding domain of PIF4 fused to N-terminal maltose binding protein) (Arabidopsis thaliana) (UniProt Q8W2F3)
T5 sequence: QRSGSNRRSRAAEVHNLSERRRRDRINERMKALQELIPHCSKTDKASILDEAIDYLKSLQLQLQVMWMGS


What was measured:
[1] = biological target: T1, PIF4-TAP (PHYTOCHROME-… FACTOR 4 with 9xMyc-6xHis-3xFlag) expressed from 35S::PIF4-TAP in Arabidopsis (Arabidopsis thaliana); test: co-IP; anti-Myc antibody on Dynabeads Protein G; nuclear proteins of 6-day-old SD-grown F1 seedlings (35S::PIF4-TAP x CDF2::3HA-CDF2); 0.5% Triton X-100, 1 mM EDTA, 20 mM Tris-HCl pH 7.5, 100 mM NaCl; 45 min at 4 °C; immunoblot with anti-HA and anti-Myc
[2] = biological target: T2, 2HA-CDF2-N (CDF2 residues 1-201), synthesized in a cell-free system (Arabidopsis thaliana); test: pull-down; proteins synthesized in wheat germ extract, mixed in IP buffer (22 mM Tris-HCl pH 7.5, 84 mM NaCl, 1.1 mM EDTA, 0.11% Triton X-100) at 4 °C; antibody-coated Dynabeads Protein G (anti-Myc by the methods, anti-HA by the results); immunoblot with anti-HA and anti-Myc
[3] = biological target: T3, 2HA-CDF2 full length, synthesized in a cell-free system (Arabidopsis thaliana); test: as above
[4] = biological target: T4, 2HA-CDF2-C (CDF2 residues 202-457), synthesized in a cell-free system (Arabidopsis thaliana); test: as above
[5] = biological target: MBP-CDF2^DOF (DOF DNA-binding domain of CDF2 fused to N-terminal maltose binding protein) (Arabidopsis thaliana) (UniProt Q93ZL5); test: SEC; gel filtration of a single MBP fusion protein (self-association); HiLoad 200, 25 mM Bis-Tris pH 8.0, 150 mM NaCl; both purified
[6] = biological target: T5, MBP-PIF4^bHLH (bHLH DNA-binding domain of PIF4 fused to N-terminal maltose binding protein) (Arabidopsis thaliana); test: SEC; gel filtration of MBP-CDF2^DOF and MBP-PIF4^bHLH together, fractions on SDS-PAGE; both purified

| Binder | binding [2] | binding [3] | other results |
| --- | --- | --- | --- |
| 3HA-CDF2 (CYCLING DOF FACTOR 2) expressed from CDF2::3HA-CDF2 in Arabidopsis (protein, UniProt Q93ZL5 1-457) MADPAIKLFGKTIPLPELGVVDSSSSYTGFLTETQIPVRLSDSCTGDDDDEEMGDSGLGREEGDDVGDGGGESETDKKEEKDSECQEESLRNESNDVTTTTSGITEKTETTKAAKTNEESGGTACSQEGKLKKPDKILPCPRCNSMETKFCYYNNYNVNQPRHFCKKCQRYWTAGGTMRNVPVGAGRRKNKSPASHYNRHVSITSAEAMQKVARTDLQHPNGANLLTFGSDSVLCESMASGLNLVEKSLLKTQTVLQEPNEGLKITVPLNQTNEEAGTVSPLPKVPCFPGPPPTWPYAWNGVSWTILPFYPPPAYWSCPGVSPGAWNSFTWMPQPNSPSGSNPNSPTLGKHSRDENAAEPGTAFDETESLGREKSKPERCLWVPKTLRIDDPEEAAKSSIWETLGIKKDENADTFGAFRSSTKEKSSLSEGRLPGRRPELQANPAALSRSANFHESS | – | – | binding [1]: binds |
| PIF4-C-6Myc (PIF4 residues 249-431), synthesized in a cell-free system (domain or fragment, UniProt Q8W2F3 249-430) RSGSNRRSRAAEVHNLSERRRRDRINERMKALQELIPHCSKTDKASILDEAIDYLKSLQLQLQVMWMGSGMAAAAASAPMMFPGVQPQQFIRQIQSPVQLPRFPVMDQSAIQNNPGLVCQNPVQNQIISDRFARYIGGFPHMQAATQMQPMEMLRFSSPAGQQSQQPSSVPTKTTDGSRLDH | binds | binds | binding [4]: no binding |
| PIF4-N-6Myc (PIF4 residues 1-248), synthesized in a cell-free system (domain or fragment, UniProt Q8W2F3 1-248) MEHQGWSFEENYSLSTNRRSIRPQDELVELLWRDGQVVLQSQTHREQTQTQKQDHHEEALRSSTFLEDQETVSWIQYPPDEDPFEPDDFSSHFFSTMDPLQRPTSETVKPKSSPEPPQVMVKPKACPDPPPQVMPPPKFRLTNSSSGIRETEMEQYSVTTVGPSHCGSNPSQNDLDVSMSHDRSKNIEEKLNPNASSSSGGSSGCSFGKDIKEMASGRCITTDRKRKRINHTDESVSLSDAIGNKSNQ | no binding | no binding | – |
| MBP-CDF2^DOF (DOF DNA-binding domain of CDF2 fused to N-terminal maltose binding protein) (domain or fragment, UniProt Q93ZL5 133-201) KPDKILPCPRCNSMETKFCYYNNYNVNQPRHFCKKCQRYWTAGGTMRNVPVGAGRRKNKSPASHYNRHV | – | – | binding [5]: no binding; binding [6]: no binding |

From PMC9477738, “PIF4 enhances DNA binding of CDF2 to co-regulate target gene expression and promote Arabidopsis hypocotyl cell elongation” (Nature Plants, 2022)
